# Reference: paper PMC4336329 (PLoS ONE, 2015)
# Out of some 310,000 compounds screened, about 2,200 (0.71%) showed an effect of 50% or more. The effect is printed as a negative number. Some of the results follow.
# Biological target: human ether-à-go-go-related gene (hERG) potassium channel (human, UniProt Q12809)
# Test: primary screen, population patch clamp on CHO cells stably expressing hERG
# Sequence of human ether-à-go-go-related gene (hERG) potassium channel (Q12809 whole entry, looked up): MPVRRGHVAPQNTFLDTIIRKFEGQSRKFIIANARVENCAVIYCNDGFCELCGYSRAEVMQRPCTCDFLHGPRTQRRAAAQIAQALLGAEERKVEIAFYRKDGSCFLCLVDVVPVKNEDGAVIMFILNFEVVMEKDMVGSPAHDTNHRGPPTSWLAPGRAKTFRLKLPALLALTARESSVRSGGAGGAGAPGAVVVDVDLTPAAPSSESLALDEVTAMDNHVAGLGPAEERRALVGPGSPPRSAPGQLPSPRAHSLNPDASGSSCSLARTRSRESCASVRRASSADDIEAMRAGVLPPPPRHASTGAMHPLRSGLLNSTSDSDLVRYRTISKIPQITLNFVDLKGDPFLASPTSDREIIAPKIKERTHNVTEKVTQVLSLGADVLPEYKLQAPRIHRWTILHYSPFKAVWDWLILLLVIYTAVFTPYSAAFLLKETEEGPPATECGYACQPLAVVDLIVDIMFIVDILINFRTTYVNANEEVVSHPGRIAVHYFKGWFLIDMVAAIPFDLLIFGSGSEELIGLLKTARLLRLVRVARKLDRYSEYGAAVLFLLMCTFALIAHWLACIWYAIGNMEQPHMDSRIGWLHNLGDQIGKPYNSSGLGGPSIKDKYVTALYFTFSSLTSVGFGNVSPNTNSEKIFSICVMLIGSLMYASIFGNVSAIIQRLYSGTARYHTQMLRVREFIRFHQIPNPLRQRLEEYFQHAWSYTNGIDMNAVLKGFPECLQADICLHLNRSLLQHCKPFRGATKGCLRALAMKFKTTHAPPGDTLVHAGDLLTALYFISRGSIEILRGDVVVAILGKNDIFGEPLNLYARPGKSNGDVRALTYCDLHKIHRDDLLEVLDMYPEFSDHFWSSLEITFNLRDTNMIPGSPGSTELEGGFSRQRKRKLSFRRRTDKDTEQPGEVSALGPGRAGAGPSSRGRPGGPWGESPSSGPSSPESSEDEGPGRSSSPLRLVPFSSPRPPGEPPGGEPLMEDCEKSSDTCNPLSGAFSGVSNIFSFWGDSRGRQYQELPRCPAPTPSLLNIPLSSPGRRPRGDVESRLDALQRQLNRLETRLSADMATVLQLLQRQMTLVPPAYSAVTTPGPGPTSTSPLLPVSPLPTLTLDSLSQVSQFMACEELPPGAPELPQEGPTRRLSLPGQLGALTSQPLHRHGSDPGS
row,SMILES,"hERG current change (%, negative = inhibition) at 1uM"
1,CC(=O)Oc1cc2c(C(=O)NCCCN3CCOCC3)c(C)oc2c2ccccc12,0.557%
2,CCC(C)N1C(=O)/C(=C/c2c(NCCCOC(C)C)nc3c(C)cccn3c2=O)SC1=S (stereo not shown),2.13%
3,Cc1csc(SCc2ccc(C(=O)O)cc2)n1,-3.47%
4,COc1ccc2c(c1)CC/C(=C\Nc1ccc3c(c1)OCO3)C2=O,6.86%
5,CN(C)S(=O)(=O)c1ccc(N2CCCC2)c(C(=O)NNC(=O)c2ccccc2)c1,2.3%
6,CC(C)Oc1ccc(C(=O)Nc2c3c(nn2-c2ccccc2)CS(=O)(=O)C3)cc1,-4.11%
7,O=S(=O)(NC1CCCC1)c1ccccc1Br,9.04%
8,O=S(=O)(c1ccccc1Oc1ccc(Cl)cc1Cl)N1CCCCC1,14.2%
9,CC(C)=CCN1CCN(CCCc2ccccc2)CC1CCO (stereo not shown),7.79%
10,COc1cc(C2CC(=O)N(CC(=O)NCC3CCCO3)c3ccccc3S2)cc(OC)c1OC (stereo not shown),11.4%
11,Cc1ccsc1CNCC(O)c1ccccc1.Cl (stereo not shown),17.6%
12,CCOC(=O)N1CCN(C(=O)C(NS(=O)(=O)c2cccc3nsnc23)c2ccccc2)CC1 (stereo not shown),5.04%
13,CCOC(=O)C1(C)C=C(Nc2ccc(NC(C)=O)cc2)C(=O)N1c1ccc(NC(C)=O)cc1 (stereo not shown),14.3%
14,CC(C)CC(=O)Nc1nnc(SCC(=O)NC2CCCCC2)s1,18.1%
15,COc1ccc2c(c1)CCc1c(C(=O)N3CCOCC3)noc1-2,-7.1%
16,O=C(CCCCn1c(=O)[nH]c2ccccc2c1=O)N1CCN(c2ncccn2)CC1,9.76%
17,O=C(CCCn1c(=S)[nH]c2ccsc2c1=O)Nc1ccc2c(c1)OCO2,12.7%
18,Cc1ccc(-c2noc(CCC(=O)NCc3ccc4c(c3)OCO4)n2)cc1,11.4%
19,Cc1ccc(-c2c3c(=O)n(C)c(=O)n(C)c3cn2Cc2ccccc2)cc1,-2.49%
20,O=C(CSc1ccccn1)Nc1ccc(NC(=O)CSc2ccccn2)cc1,8.03%
21,O=C(COC(=O)c1ccc2c(c1)OCCO2)NCCC1=CCCCC1,-4.23%
22,Cl.O=C(CSc1nnc(-c2ccccc2)n1C1CCCCC1)Nc1ccc(S(=O)(=O)Nc2ccccn2)cc1,1.7%
23,COC(=O)CNC(=O)Cn1c(=O)n(Cc2ccc(F)cc2)c(=O)c2sccc21,12.4%
24,CCN(CC)S(=O)(=O)c1ccc(C(=O)N2CCCCC2)cc1,23.7%
25,CC1C(=O)Nc2ccccc2N1C(=O)c1ccccc1 (stereo not shown),12.6%
26,O=C(CS(=O)(=O)Cc1ccccc1)Nc1ncccn1,13%
27,O=C(CCCCCN1C(=O)c2ccccc2C1=O)Nc1nccs1,-6.03%
28,CS(=O)(=O)c1nc(S(=O)(=O)c2ccc(Cl)cc2)c(NCCCN2CCOCC2)s1,7.76%

row,SMILES,"hERG current change (%, negative = inhibition) at 1uM"
1,CC#CC[N+](C)(C)CCCCCCCCCC.[Br-],3.29%
2,Cc1oc(-c2ccoc2)nc1CN(CC1CCC(=O)N1)C(C)C (stereo not shown),11.6%
3,COc1ccc(-c2ccc(-c3noc(-c4cccs4)n3)c(OC)n2)cc1,5.36%
4,COc1ccccc1NC(=O)Cc1ccsc1,14.5%
5,COc1ccc(N2CCN(C(=O)NC(=O)c3ccccc3)CC2)cc1,7.62%
6,O=C(Nc1cc(C(=O)N2CCCC2)ccc1N1CCCC1)c1ccccc1,-83.5%
7,COc1ccc(CNC(=O)C(c2ccco2)N(C(=O)c2snc(C(N)=O)c2N)c2cccc(OC)c2)cc1 (stereo not shown),13.3%
8,Cc1c(/C(O)=C2\C(=O)C(=O)N(CCN(C)C)C2c2cccnc2)cnn1-c1ccccc1 (stereo not shown),0.231%
9,COc1ccc(CCNC(=S)NCCc2ccc(OC)c(OC)c2)cc1OC,5.3%
10,CN1CCN(c2c(F)cc3c(=O)c(C(=O)[O-])cn4c3c2OCN4C)CC1,18.5%
11,COc1ccc(OCc2cc(C(=O)N(C)CC3CCCCO3)no2)c(Cl)c1 (stereo not shown),-1.77%
12,COc1ccc(NC(=O)Nc2ccccc2SC)cc1OC,10.1%
13,CCS(=O)(=O)N1Cc2ccccc2CC1C(=O)N1CCN(c2ccccc2)CC1 (stereo not shown),-7.81%
14,O=C(Cc1c(F)cccc1Cl)Nc1cccc(S(=O)(=O)NC2=NCCCCC2)c1,11.9%
15,COc1ccccc1N1CCN(c2nc(N)c(C#N)c(CC#N)c2C#N)CC1,-10.7%
16,CC(=O)c1c(N2CCN(Cc3ccccc3)CC2)nc(=S)n(-c2ccccc2)c1C,6.07%
17,Cc1ccc(Cl)c(OCCN2CCCC(C)C2)c1.O=C(O)C(=O)O (stereo not shown),6.63%
18,COc1ccccc1NS(=O)(=O)c1cc(NC(=O)CN2C(=O)NC3(CCCC3)C2=O)ccc1C,1.57%
19,COC(=O)c1ccccc1NC(=O)C1CCCC1,-16.1%
20,CC(C)[C@H]1C(=O)Nc2ccccc2N1C(=O)N[C@@H](Cc1ccccc1)C(=O)N[C@@H](Cc1ccccc1)C(=O)O,11.6%
21,CC(=O)Nc1ccc(S(=O)(=O)N(Cc2ccccc2)c2ccccc2)cc1,4.19%
22,Cc1ccc(CC(=O)N(Cc2ccccc2)c2ccccn2)cc1,4.37%
23,COc1ccc(/C=N/NC(=O)c2cccnc2)cc1CN1CCc2ccccc2C1,1.59%
24,COc1ccc(C(=O)C(CCCCC(CN(C)C)C(=O)c2ccc(OC)cc2)CN(C)C)cc1.Cl (stereo not shown),3.54%
25,CCCNC(=O)c1ccc(Cn2c(=S)[nH]c3c([nH]c4ccc(OC)cc43)c2=O)cc1,-3.33%
26,CC(CN1C(C)CCCC1C)OC(=O)c1ccc(F)cc1.Cl (stereo not shown),14.8%
27,Cc1cccc(S(=O)(=O)C(C#N)c2nc3ccccc3nc2N2CCOCC2)c1 (stereo not shown),10.9%
